Experimental findings from ChEMBL document CHEMBL1201862, “PubChem BioAssay data set” (2004) are described below.

Structures are written as SMILES.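 Test compounds were applied to cells in 96-well plates for 48 hours at 5 doses. GI50 = concentration required for 50% inhibition of growth.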 Activity calls are given as the source filed them. Rule as the data show it: active = GI50 up to about 1.1 µM and inactive = higher.

This experiment concerns NCI-H322M. The experiment can be described thus: inhibition of tumour cell growth, NCI panel, 48 h.
For `O=C(O)c1nn(-c2ccc(Cl)cc2)c2c1C(=O)c1ccccc1C2=O`, the GI50 was inactive: 41.8 µM.
With `Cn1c(=O)c2c(nc(C(=N)SCC(=O)O)n2C)n(C)c1=O`, the GI50 is inactive: 44.9 µM.
As for `COC12C=CC(CC1)C1C(=O)c3c(C)c(C)n(C)c3C(=O)C12` (configuration not stated), the GI50 was inactive: > 100 µM.
As for `CCOC(=O)c1cn2c(n1)sc1c(Cl)c(Cl)ccc12`, the GI50 was inactive: 32.4 µM.
Regarding `CCOC(=O)c1sc2c(C(=O)OCC)n3cc(C)cc(C)c3c2c1O`, the GI50 is inactive: > 100 µM.
The figure for `CSc1nc(C)cc(=O)n1C1OC(COC(C)=O)C(OC(C)=O)C(OC(C)=O)C1OC(C)=O` (configuration not stated) is inactive: > 100 µM; for `COc1cccc(C2C(C(=O)O)=C(CO)Oc3cc4c(cc32)OCO4)c1OC` (configuration not stated) it is inactive: > 100 µM.
As to `CC(=O)/N=C1\NC(=O)/C(=C/c2ccccc2Cl)N1C`, the GI50 was inactive: > 100 µM.
Consider `N#CI1OC(C(F)(F)F)(C(F)(F)F)c2ccccc21`, for which the GI50 is inactive: > 100 µM.
Then `CCn1cc(C(=O)O)c(=O)c2cc3c(cc21)S(=O)(=O)CC3`, with inactive: > 100 µM.
Consider `CCC1(c2ccc(OC)c(OC)c2)CCN2C(=O)C(O)CC21` (configuration not stated), for which the GI50 is inactive: > 100 µM.
As to `COc1ccc(CCn2ccc(=O)c(O)c2C)cc1OC`, the GI50 was inactive: 24.9 µM.
With `CCCCCCCCOCC(O)CO` (configuration not stated), the GI50 is inactive: > 100 µM.
As to `COc1cc(/C=C/C2=NN(c3cccc(S(=O)(=O)O)c3)C3(C2)SCC(=O)N3c2nc3ccccc3s2)cc(OC)c1OC` (configuration not stated), the GI50 was inactive: 85.1 µM.
In the case of `CCOC(=O)/C=C/c1c[nH]c(=O)[nH]c1=O`, the GI50 was inactive: > 75 µM.
In the case of `O=C(O)c1cc2c(cc1CC(Cc1ccccc1)C(=O)O)CCC2` (configuration not stated), the GI50 is inactive: > 100 µM.
The figure for `CC(C)(C)OC(=O)NCC(c1c[nH]c2cc(Br)ccc12)c1c[nH]c2cc(Br)ccc12` is inactive: 17.1 µM; for `O=C(O)c1cccc(CN2CCCCC2)c1` it is inactive: > 100 µM.
In the case of `Cc1ccc2c(ccc3[nH]cc(CNc4ccc(NS(C)(=O)=O)cc4)c32)n1`, the GI50 was inactive: 30.7 µM.
Then `Cc1cccc(C(C)C)c1NC(=O)C(=O)CC(=O)c1c(C)[n+]([O-])c2ccccc2[n+]1[O-]`, with inactive: 30.8 µM; and `C#CCn1c(=O)c(C#N)c(O)c2cc3ccccc3nc21`, with inactive: > 31.6 µM.
`Cc1ccc(Nc2[nH]c(=O)[nH]c(=O)c2C)cc1Cl`: the GI50 is inactive: > 100 µM.
Then `Cc1c(Cl)cccc1NC(=O)/C(Cl)=C(\Cl)C(=O)O`, with inactive: > 100 µM; and `COC(=O)[C@]1(C)CCC[C@@]2(C)C1CC[C@]13C=C(C(C)C)[C@H](CC21)CC3(Cl)C#N` (some centres not stated), with inactive: > 100 µM; and `O=C(NC12CC3CC(CC(C3)C1)C2)C(=O)c1c[nH]c2ccc(Br)cc12`, with inactive: 24.8 µM.
Regarding `COc1ccc(NC(=O)C2=CC(=O)c3ccc(O)cc3C2=O)c(OC)c1`, the GI50 was inactive: > 100 µM.
Turning to `Cc1c2oc3c(C)cnc(C(=O)NC4C(=O)NC(C(C)C)C(=O)N5CCCC5C(=O)N(C)CC(=O)N(C)C(C(C)C)C(=O)OC4C)c3nc-2c(C(=O)NC2C(=O)NC(C(C)C)C(=O)N3CCCC3C(=O)N(C)CC(=O)N(C)C(C(C)C)C(=O)OC2C)c(N)c1=O` (configuration not stated), the GI50 is inactive: 5.73 µM.
Regarding `Cc1coc2c1C(=O)C(=O)c1ccccc1-2`, the GI50 was inactive: 1.49 µM.
With `CC(=O)NC(CC(C)C)C(=O)NC(CC(C)C)C(=O)NC(C=O)CCCNC(=N)N` (configuration not stated), the GI50 is inactive: > 100 µM.
With `CC(=O)/C(=C/N1C(=O)CC(=O)NC1=S)C(=O)Nc1ccccc1C`, the GI50 is inactive: 49.5 µM.
As to `Cc1ccc(S(=O)(=O)NNC(=O)Nc2ccc([N+](=O)[O-])cc2)cc1`, the GI50 is inactive: 88.3 µM.
Then `COC(=O)C(Cc1c[nH]c2ccccc12)NC1=Nc2ccncc2S(=O)(=O)N1c1cccc(OC(C)C)c1` (configuration not stated), with inactive: 48.2 µM; and `CN(C)CCNC(=O)c1ccccc1Nc1c(Cl)cccc1Cl`, with inactive: 15.1 µM; and `Cc1cc2nc3c(N)nn(CCCN(C)C)c3nc2cc1C`, with inactive: 53.2 µM.
In the case of `Nn1c(Cc2ccc(Cl)cc2)n[nH]c1=O`, the GI50 is inactive: > 100 µM.
`CC(C)C1OC(=O)C=C1Sc1ccccc1` (configuration not stated): the GI50 is inactive: > 100 µM.
`CC(C)(/N=N/C(C)(C)C1=NCCN1)C1=NCCN1`: the GI50 is inactive: > 100 µM.
In the case of `COC(=O)/C=C\[C@@H]1[C@H](C)N1S(=O)(=O)c1ccc(C)cc1` (some centres not stated), the GI50 was inactive: > 100 µM.
With `COC1=C[C@]2(CCC(=O)O2)[C@@H]2Cc3ccccc3[C@H](O)[C@@H]2C1=O`, the GI50 was inactive: > 100 µM.
In the case of `Cc1c(C)c(C)c(Cn2[nH]c(=O)n(C)c2=O)c(C)c1C`, the GI50 was inactive: > 100 µM.
Then `CCC1(CN(C)C)CC/C(=C\c2ccc(OC)c(OC)c2)C1=O` (configuration not stated), with inactive: > 100 µM.
Consider `CSc1nc(Nc2ccccc2Cl)c2c(N)nn(C)c2n1`, for which the GI50 was inactive: > 100 µM.
Then `COc1cc(Cn2c(=S)ss/c2=N\C(=S)N(C)C)cc(OC)c1OC`, with inactive: > 46.7 µM; and `CCCC(C)c1c(Cl)nc(Cl)nc1Cl` (configuration not stated), with inactive: 12 µM.
As to `CN(C)c1ccc2c(SCC(=O)OCC(=O)[C@@]3(O)CC[C@H]4[C@@H]5CCC6=CC(=O)C=C[C@]6(C)[C@H]5C(=O)C[C@@]43C)c3ccc(N(C)C)cc3nc2c1`, the GI50 was inactive: 19.9 µM.
Regarding `O=C(Cc1ccccc1)C(c1ccccc1)S(=O)(=O)c1ccccc1` (configuration not stated), the GI50 was inactive: > 100 µM.
On to `O=c1oc2ccccc2n1P(=O)(n1c(=O)oc2ccccc21)n1c(=O)oc2ccccc21`, for which the GI50 was inactive: > 100 µM.
With `Cc1noc(C)c1C1=CCCCc2ccccc21`, the GI50 was inactive: > 100 µM.
Regarding `C=CCN1C(=O)CC2[C@@H]3CCc4cc(O)ccc4C3CC[C@]2(C)C1=O` (some centres not stated), the GI50 was inactive: > 10 µM.
Then `CC[C@@]1(O)C(=O)OCc2c1cc1n(c2=O)Cc2c-1nc1ccccc1c2/C=N\NC(=O)C(N)Cc1ccc(O)cc1` (some centres not stated), with inactive: 3.56 µM; and `CN(C)C(=O)Oc1ccc(-c2cn3cc(NC(=O)c4ccccc4)ccc3n2)cc1`, with inactive: > 100 µM.
Turning to `CC(C)N(C(=O)C12C3C4C5(C#N)C3C1(C#N)C5C42C#N)C(C)C` (configuration not stated), the GI50 was inactive: > 100 µM.
For `Cc1ccc(/N=C2/C(c3ccccc3)=C(SC3=C(c4ccccc4)/C(=N/c4ccc(C)cc4)c4ccccc43)c3ccccc32)cc1`, the GI50 was inactive: 48 µM.
Turning to `COC(=O)[C@@H]1C=CCN1S(=O)(=O)c1ccc(C)cc1`, the GI50 was inactive: > 100 µM.
For `Nc1cc(O)c2cc(/N=N/c3ccc(/N=N/c4ccc(/N=N/c5ccc6cc(S(=O)(=O)O)cc(S(=O)(=O)O)c6c5)c5ccccc45)c4cc(S(=O)(=O)O)ccc34)c(S(=O)(=O)O)cc2c1`, the GI50 was inactive: > 100 µM.
In the case of `O=S(=O)(O)c1cccc2c(/N=N/c3c(O)ccc4ccccc34)cccc12`, the GI50 is inactive: > 100 µM.
Consider `COc1cc(C2c3cc4c(cc3[C@@H](NCCN(C)C)C3COC(=O)[C@H]23)OCO4)cc(OC)c1O` (some centres not stated), for which the GI50 is inactive: 3.1 µM.
